PMC4949421
These are yes or no findings as the source states them, for the method shown. In cells and extracts the contact can be indirect. Some entries that bind do so weakly or less than the wild type. Where a sequence is shown, tags or fusion partners need not be part of it. Blank lines part the entries; values can stand above or below the molecule they belong to.

Chains of the proteins cited; added tags and fusions are not shown. Residues count along the entry.
UniProt P18564, residues 22-788: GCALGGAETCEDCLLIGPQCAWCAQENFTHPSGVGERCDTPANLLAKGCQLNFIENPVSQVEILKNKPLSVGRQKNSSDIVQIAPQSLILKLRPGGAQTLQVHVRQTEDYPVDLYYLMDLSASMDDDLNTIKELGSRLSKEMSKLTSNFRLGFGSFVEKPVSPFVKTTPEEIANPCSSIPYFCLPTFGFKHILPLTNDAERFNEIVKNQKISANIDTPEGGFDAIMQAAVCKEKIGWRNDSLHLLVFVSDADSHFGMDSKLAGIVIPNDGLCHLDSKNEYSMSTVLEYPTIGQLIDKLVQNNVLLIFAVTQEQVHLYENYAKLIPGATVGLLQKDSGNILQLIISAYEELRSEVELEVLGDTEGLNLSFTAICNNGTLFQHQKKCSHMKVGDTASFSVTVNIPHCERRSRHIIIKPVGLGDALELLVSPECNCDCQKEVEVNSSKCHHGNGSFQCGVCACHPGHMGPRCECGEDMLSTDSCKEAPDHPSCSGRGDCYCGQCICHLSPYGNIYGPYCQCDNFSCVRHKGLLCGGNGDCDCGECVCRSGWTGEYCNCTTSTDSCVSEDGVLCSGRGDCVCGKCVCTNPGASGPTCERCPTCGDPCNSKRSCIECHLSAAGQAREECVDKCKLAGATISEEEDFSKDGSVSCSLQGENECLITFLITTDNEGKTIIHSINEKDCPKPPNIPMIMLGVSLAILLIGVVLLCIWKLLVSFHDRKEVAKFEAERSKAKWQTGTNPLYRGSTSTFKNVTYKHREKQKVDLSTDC

How the values were obtained:
FLAG-DSP aa183-219 = molecular target: T1, FLAG-DSP aa183-219 (UniProt P97399); experiment: co-IP; FLAG-DSP fragments and Myc-integrin β6 co-transfected (293T cells, 48 h, by the results and legend; mDPC6T by the methods); lysis in 50 mM Tris-HCl pH 7.4, 150 mM NaCl, 1 mM EDTA, 1% Triton X-100; anti-FLAG or anti-Myc affinity gel at 4 °C overnight; western blot with anti-FLAG or anti-Myc
T1 sequence: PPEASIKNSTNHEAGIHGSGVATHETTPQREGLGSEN

[1] = molecular target: T2, GST-COOH-terminal DSP aa183-456 (UniProt P97399); experiment: pull-down; purified GST-DSP fusion protein incubated with lysate of mouse odontoblast-like cells in lysis buffer overnight at 4 °C; glutathione agarose beads; eluted with reduced glutathione; western blot with anti-DSP and anti-β6 antibodies; only the target purified
T2 sequence: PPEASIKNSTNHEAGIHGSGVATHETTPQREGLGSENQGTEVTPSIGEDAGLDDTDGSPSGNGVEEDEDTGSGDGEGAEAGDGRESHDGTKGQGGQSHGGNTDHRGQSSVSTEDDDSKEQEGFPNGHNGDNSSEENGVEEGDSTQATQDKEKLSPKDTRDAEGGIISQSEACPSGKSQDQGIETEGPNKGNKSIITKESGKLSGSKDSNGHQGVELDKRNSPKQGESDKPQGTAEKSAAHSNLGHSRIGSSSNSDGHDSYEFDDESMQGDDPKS

GST-DSP aa183-219 = molecular target: T3, GST-DSP aa183-219 (UniProt P97399); experiment: as above
T3 sequence: T1 sequence

GST-DSP aa183-295 = molecular target: T4, GST-DSP aa183-295 (UniProt P97399); experiment: as above
T4 sequence: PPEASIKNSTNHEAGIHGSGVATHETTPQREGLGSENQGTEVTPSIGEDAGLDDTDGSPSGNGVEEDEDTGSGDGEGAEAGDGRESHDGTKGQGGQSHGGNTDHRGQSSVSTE

GST-DSP aa214-246 = molecular target: T5, GST-DSP aa214-246 (UniProt P97399); experiment: as above
T5 sequence: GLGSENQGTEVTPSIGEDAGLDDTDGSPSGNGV

GST-DSP aa240-271 = molecular target: T6, GST-DSP aa240-271 (UniProt P97399); experiment: as above
T6 sequence: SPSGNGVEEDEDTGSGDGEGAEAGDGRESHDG

GST-DSP aa266-299 = molecular target: T7, GST-DSP aa266-299 (UniProt P97399); experiment: as above
T7 sequence: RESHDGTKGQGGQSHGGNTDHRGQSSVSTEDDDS

GST-DSP aa266-371 = molecular target: T8, GST-DSP aa266-371 (UniProt P97399); experiment: as above
T8 sequence: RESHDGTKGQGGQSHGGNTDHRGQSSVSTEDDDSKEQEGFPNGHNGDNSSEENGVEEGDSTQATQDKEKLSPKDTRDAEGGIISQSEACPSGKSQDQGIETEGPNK

GST-DSP aa365-456 = molecular target: T9, GST-DSP aa365-456 (UniProt P97399); experiment: as above
T9 sequence: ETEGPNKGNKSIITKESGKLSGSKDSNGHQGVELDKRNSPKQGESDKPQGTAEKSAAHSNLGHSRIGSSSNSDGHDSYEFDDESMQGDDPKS

[2] = molecular target: T10, GST-DSP fusion protein (DSP 9-456) (UniProt P97399); experiment: as above
T10 sequence: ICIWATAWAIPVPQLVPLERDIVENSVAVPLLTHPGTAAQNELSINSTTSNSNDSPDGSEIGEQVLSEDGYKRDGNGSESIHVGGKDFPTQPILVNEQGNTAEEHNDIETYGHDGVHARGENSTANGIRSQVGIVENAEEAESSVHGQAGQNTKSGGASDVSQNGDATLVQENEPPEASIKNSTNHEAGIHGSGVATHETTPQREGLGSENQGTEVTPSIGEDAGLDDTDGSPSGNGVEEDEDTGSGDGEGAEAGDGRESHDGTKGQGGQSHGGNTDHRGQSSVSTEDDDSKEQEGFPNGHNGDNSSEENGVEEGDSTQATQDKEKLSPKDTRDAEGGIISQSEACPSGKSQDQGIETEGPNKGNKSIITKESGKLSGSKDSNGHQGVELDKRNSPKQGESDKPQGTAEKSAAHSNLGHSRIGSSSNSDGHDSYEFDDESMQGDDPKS

[3] = molecular target: T11, GST-NH2-terminal DSP aa9-190 (UniProt P97399); experiment: as above
T11 sequence: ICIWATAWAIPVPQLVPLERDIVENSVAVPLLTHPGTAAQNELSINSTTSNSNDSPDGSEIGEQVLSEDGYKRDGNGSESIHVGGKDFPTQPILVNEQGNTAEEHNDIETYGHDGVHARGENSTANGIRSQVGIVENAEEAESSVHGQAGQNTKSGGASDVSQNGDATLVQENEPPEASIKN

binding (FLAG-DSP aa183-219): binds
Molecule: Myc-integrin β6 (from UniProt P18564 22-788) (receptor)

binding [1]: binds
binding (GST-DSP aa183-219): binds
binding (GST-DSP aa183-295): binds
binding (GST-DSP aa214-246): no binding
binding (GST-DSP aa240-271): no binding
binding (GST-DSP aa266-299): no binding
binding (GST-DSP aa266-371): no binding
binding (GST-DSP aa365-456): no binding
binding [2]: binds
binding [3]: no binding
B1: integrin β6 (endogenous, mouse odontoblast-like cells) (receptor, UniProt Q9Z0T9 22-787)
chain: GCAWGGAESCSDCLLTGPHCAWCSQENFTHLSGAGERCDTPANLLAKGCQLPFIENPVSRIEVLQNKPLSVGRQKNSSDIVQIAPQSLVLKLRPGREQTLQVQVRQTEDYPVDLYYLMDLSASMDDDLNTIKELGSRLAKEMSKLTSNFRLGFGSFVEKPVSPFMKTTPEEITNPCSSIPYFCLPTFGFKHILPLTDDAERFNEIVRKQKISANIDTPEGGFDAIMQAAVCKEKIGWRNDSLHLLVFVSDADSHFGMDSKLAGIVIPNDGLCHLDHRNEYSMSTVLEYPTIGQLIDKLVQNNVLLIFAVTQEQVHLYENYAKLIPGATVGLLQKDSGNILQLIISAYEELRSEVELEVLGDTEGLNLSFTALCNNGVLFPHQKKCSHMKVGDTASFNVTVSVSNCEKRSRNLIIKPVGLGDTLEILVSAECDCDCQREIETNSSKCHNGNGSFQCGVCTCNPGHMGPHCECGEDMVSTDSCKESPGHPSCSGRGDCYCGQCICHLSPYGSIYGPYCQCDNFSCLRHKGLLCGDNGDCDCGECVCRDGWTGEYCNCTTNRDSCTSEDGVLCSGRGDCVCGKCVCRNPGASGPTCERCPTCGDPCNSKRSCIECYLSADGQAQEECADKCKAIGATISEEDFSKDTSVSCSLQGENECLITFLITTDNEGKTIIHNINEKDCPKPPNIPMIMLGVSLAILLIGVVLLCIWKLLVSFHDRKEVAKFEAERSKAKWQTGTNPLYRGSTSTFKNVTYKHREKHKAGLSSDG
